Cytotoxicity call and growth inhibition call data for 29 compounds are collected here from the antibiotic and cytotoxicity screens of Wong et al. (2023).

This is one part of the list.

For one assay, the system named is HSkMC. In words: cytotoxicity call (relative viability < 0.9). Conditions: 10 µM.
The next assay deals with HepG2. In words: cytotoxicity call (relative viability < 0.9). Conditions: 10 µM.
The test system of the next assay is S. aureus RN4220. In words: growth inhibition call (relative growth <= 0.2). The note with it: 50 µM.

Turning to `C[C@@H]1CN([C@@H](C)CO)C(=O)c2cc(NC(=O)c3ccncc3)ccc2O[C@@H](C)CCCCO[C@@H]1CN(C)CC1CCCCC1`, the cytotoxicity call with HSkMC and in the assay on HepG2 was “inactive” each time. Besides, the growth inhibition call in the assay on S. aureus RN4220 was “inactive”.
Regarding `O=C(NO)c1ccncc1`, the cytotoxicity call in the assay with HSkMC and in the assay on HepG2 was “inactive” throughout. Also, the growth inhibition call with S. aureus RN4220 is “inactive”.
For `C[C@H](CO)N1C[C@H](C)[C@H](CN(C)Cc2ccc(Cl)c(Cl)c2)Oc2ccc(NC(=O)Nc3ccc4c(c3)OCO4)cc2CC1=O`, the cytotoxicity call in the assay on HSkMC and in the assay on HepG2 was “active” throughout. Also, the growth inhibition call in the assay on S. aureus RN4220 is “inactive”.
Turning to `COCC(=O)Nc1ccc2c(c1)C(=O)N(C)C[C@@H](OC)[C@H](C)CN(Cc1cccc(F)c1)[C@@H](C)CO2`, the cytotoxicity call in the assay with HSkMC and with HepG2 was “inactive” each time. Further, in the assay on S. aureus RN4220, the growth inhibition call is “inactive”.
For `O=C(NO)c1cccnc1`, the cytotoxicity call in the assay with HSkMC and in the assay with HepG2 was “inactive” each time. Besides, the growth inhibition call in the assay with S. aureus RN4220 is “inactive”.
`CCCCc1nc(Cl)c(CO)n1Cc1ccc(-c2ccccc2-c2nnn[nH]2)cc1`: the cytotoxicity call in the assay on HSkMC and in the assay on HepG2 was “inactive” in each case. Also, the growth inhibition call in the assay on S. aureus RN4220 was “inactive”.
`C[C@@H]1CN([C@H](C)CO)C(=O)c2cc(C#CCc3ccccc3)cnc2O[C@H]1CN(C)C(=O)C1CCOCC1`: the cytotoxicity call in the assay on HSkMC and in the assay with HepG2 was “inactive” in each case. In addition, the growth inhibition call in the assay with S. aureus RN4220 is “inactive”.
With `C[C@@H]1CN([C@@H](C)CO)C(=O)c2cc(NC(=O)NC3CCCCC3)ccc2O[C@@H](C)CCCCO[C@H]1CN(C)C(=O)c1ccncc1`, the cytotoxicity call in the assay with HSkMC and with HepG2 was “inactive” throughout. Also, the growth inhibition call with S. aureus RN4220 is “inactive”.
Regarding `CNC[C@H]1OCCCC[C@@H](C)Oc2ccc(NC(=O)c3ccncc3)cc2C(=O)N([C@@H](C)CO)C[C@H]1C`, the cytotoxicity call in the assay on HSkMC and in the assay with HepG2 was “inactive” throughout. Moreover, the growth inhibition call with S. aureus RN4220 was “inactive”.
Consider `Cc1ccc(NC(=O)Cc2coc3ccc(C(C)C)cc23)cc1`, for which the cytotoxicity call in the assay with HSkMC and with HepG2 was “inactive” in each case. In addition, the growth inhibition call with S. aureus RN4220 was “inactive”.
In the case of `C[C@H](CO)N1C[C@H](C)[C@@H](CN(C)C(=O)NC2CCCCC2)OCc2ccccc2-c2c(n(C)c3ccccc23)C1=O`, the cytotoxicity call in the assay with HSkMC and with HepG2 was “inactive” each time. In addition, the growth inhibition call in the assay with S. aureus RN4220 is “inactive”.
With `COc1ccc(NC(=O)N(C)C[C@H]2Oc3cc(Br)ccc3S(=O)(=O)N([C@H](C)CO)C[C@@H]2C)cc1`, the cytotoxicity call in the assay with HSkMC and with HepG2 was “inactive” throughout. The growth inhibition call with S. aureus RN4220 was “inactive”.
Take `Cc1ccc(S(=O)(=O)Nc2cccc3c2O[C@H](CN(C)S(=O)(=O)c2ccccc2)[C@H](C)CN([C@H](C)CO)C3=O)cc1`: the cytotoxicity call in the assay on HSkMC and in the assay with HepG2 was “inactive” throughout. Besides, the growth inhibition call with S. aureus RN4220 was “inactive”.
Regarding `COCC(=O)Nc1ccc2c(c1)C(=O)N(C)[C@H]1CC[C@H](CC(=O)NCc3ccc(OC)cc3)O[C@@H]1CO2`, the cytotoxicity call in the assay with HSkMC and in the assay with HepG2 was “inactive” in each case. Besides, in the assay on S. aureus RN4220, the growth inhibition call is “inactive”.
For the compound `CO[C@@H]1CN(C)C(=O)c2cc(NS(=O)(=O)CC(F)(F)F)ccc2OC[C@@H](C)N(Cc2ccccn2)C[C@H]1C`, the cytotoxicity call with HSkMC and with HepG2 was “inactive” throughout. In addition, the growth inhibition call in the assay with S. aureus RN4220 is “inactive”.
Turning to `COc1ccc(CN(C)C[C@H]2OCCCC[C@@H](C)Oc3ccc(NC(=O)Nc4ccccc4)cc3C(=O)N([C@@H](C)CO)C[C@H]2C)cc1`, in the assay with HSkMC, the cytotoxicity call was “inactive”. Further, the cytotoxicity call in the assay on HepG2 is “active”. The growth inhibition call in the assay with S. aureus RN4220 was “inactive”.
As to `CC(/C=C/C(=O)NO)=C\c1ccccc1OCc1cn(C[C@@H]2CCCN2S(=O)(=O)c2ccc(C)cc2)nn1`, the cytotoxicity call in the assay on HSkMC is “inactive”. Besides, in the assay on HepG2, the cytotoxicity call was “active”. In addition, the growth inhibition call with S. aureus RN4220 was “inactive”.
Consider `C[C@@H]1CC=CC[C@H](c2ccc3c(c2)OCO3)NC(=O)[C@@H](Cc2ccccc2)N(C)C(=O)c2ccccc2O1`, for which, in the assay with HSkMC, the cytotoxicity call was “inactive”. Moreover, the cytotoxicity call in the assay with HepG2 is “active”. Moreover, the growth inhibition call in the assay with S. aureus RN4220 is “inactive”.
With `C[C@@H]1CN([C@@H](C)CO)C(=O)c2cc(NC(=O)NC3CCCCC3)ccc2O[C@@H](C)CCCCO[C@@H]1CN(C)C(=O)c1ccccc1`, the cytotoxicity call with HSkMC and in the assay with HepG2 was “inactive” in each case. Moreover, the growth inhibition call with S. aureus RN4220 was “inactive”.
Regarding `C[C@@H]1CCCCO[C@@H](CN(C)Cc2ccc3c(c2)OCO3)[C@H](C)CN([C@@H](C)CO)C(=O)c2cc(NC(=O)c3ccccc3)ccc2O1`, in the assay on HSkMC, the cytotoxicity call is “inactive”. In the assay with HepG2, the cytotoxicity call is “active”. Also, the growth inhibition call with S. aureus RN4220 was “inactive”.
As to `C[C@@H]1CN([C@H](C)CO)C(=O)c2cc(NC(=O)Nc3ccc(C(F)(F)F)cc3)ccc2O[C@@H](C)CCCCO[C@@H]1CN(C)Cc1ccccc1`, the cytotoxicity call in the assay on HSkMC and in the assay on HepG2 was “active” each time. For the same compound, in the assay with S. aureus RN4220, the growth inhibition call is “inactive”.
Turning to `C=CC[C@@H](CC(=O)N(CCO)Cc1ccccc1)C(=O)NC[C@H](OC(=O)[C@H](CC=C)NC(=O)OCC1c2ccccc2-c2ccccc21)c1ccccc1`, the cytotoxicity call in the assay with HSkMC and in the assay on HepG2 was “inactive” each time. In the assay on S. aureus RN4220, the growth inhibition call was “inactive”.
With `C[C@@H]1CN([C@H](C)CO)C(=O)c2cc(NC(=O)c3ccccc3)ccc2O[C@@H](C)CCCCO[C@H]1CN(C)C(=O)c1ccccc1`, the cytotoxicity call with HSkMC and in the assay with HepG2 was “inactive” in each case. In addition, in the assay with S. aureus RN4220, the growth inhibition call is “inactive”.
Consider `COc1ccc(NC(=O)N(C)C[C@H]2Oc3ccc(NC(=O)Nc4ccc(C(F)(F)F)cc4)cc3C(=O)N([C@@H](C)CO)C[C@@H]2C)cc1`, for which the cytotoxicity call with HSkMC and in the assay with HepG2 was “inactive” throughout. For the same compound, the growth inhibition call in the assay with S. aureus RN4220 is “inactive”.
For the compound `CC(C)NC(=O)N(C)C[C@H]1OCCCC[C@@H](C)Oc2ccc(NC(=O)C3CCCCC3)cc2C(=O)N([C@H](C)CO)C[C@H]1C`, the cytotoxicity call in the assay on HSkMC and in the assay with HepG2 was “inactive” in each case. The growth inhibition call in the assay on S. aureus RN4220 was “inactive”.
Consider `C[C@H]1CCCCO[C@H](CN(C)C(=O)Nc2ccc3c(c2)OCO3)[C@@H](C)CN([C@@H](C)CO)C(=O)c2cc(NS(=O)(=O)c3ccccc3)ccc2O1`, for which the cytotoxicity call in the assay on HSkMC (human skeletal muscle cells) and in the assay on HepG2 was “inactive” each time. Further, the growth inhibition call in the assay on S. aureus RN4220 was “inactive”.
For the compound `O=c1[nH]nc2ccccn12`, the cytotoxicity call with HSkMC and with HepG2 was “inactive” each time. For the same compound, the growth inhibition call in the assay on S. aureus RN4220 was “inactive”.
On to `CN1CCN(C(=O)C[C@@H]2C=C[C@H](NS(=O)(=O)c3cccc(F)c3)[C@H](CO)O2)CC1`, for which the cytotoxicity call in the assay with HSkMC and in the assay on HepG2 was “inactive” each time. For the same compound, the growth inhibition call with S. aureus RN4220 is “inactive”.
`N#Cc1cccc2ccsc12`: the cytotoxicity call with HSkMC and with HepG2 was “inactive” in each case. For the same compound, the growth inhibition call in the assay on S. aureus RN4220 was “inactive”.
